Source: patent publication US20250326851A1 (Bayer, published 2025)
Where “and” joins values, the source holds several entries; their conditions need not be identical. Equal entries are not always repeated.

Legend:
[1] = molecular target: T1, mouse CCR8 on HEK293 cells (mouse, UniProt P56484 1-353); test: flow cytometry on murine CCR8-transfected HEK293 cells
T1 construct: whole, on cells; also called murine CCR8; murine CCR8-transfected HEK293 cells
T1 sequence (looked up): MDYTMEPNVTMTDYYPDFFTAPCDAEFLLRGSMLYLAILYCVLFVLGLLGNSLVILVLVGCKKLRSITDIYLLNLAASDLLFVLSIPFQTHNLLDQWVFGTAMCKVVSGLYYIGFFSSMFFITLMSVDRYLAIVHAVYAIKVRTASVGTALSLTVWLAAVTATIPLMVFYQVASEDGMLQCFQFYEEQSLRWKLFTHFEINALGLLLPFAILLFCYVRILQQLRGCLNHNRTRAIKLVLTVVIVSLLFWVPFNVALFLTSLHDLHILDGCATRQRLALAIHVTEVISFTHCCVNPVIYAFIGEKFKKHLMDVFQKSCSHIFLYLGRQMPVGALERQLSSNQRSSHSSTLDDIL
Experimental: The binding properties of murine surrogate antibodies were assessed using flow cytometry on HEK293 cells ectopically expressing murine CCR8.

[2] = molecular target: T1, mouse CCR8 on HEK293 cells; test: cell-based or functional assay
[3] = molecular target: T1, mouse CCR8 on HEK293 cells; test: cell-based or functional assay; remark: listed apart in the source

B1: TPP-14099 (antibody)
chain 1: EVQLLESGGGLVQPGGSLRLSCAASGFTFSDYGVHWVRQAPGKGLEWVSGVSWNGSRTHYADSVKGRFTISRDNSKNTLYLQMNSLRAEDTAVYYCVTRGAWGQGTLVTVSS[skipping human IgG1 constant region]
chain 2: QSVLTQPPSASGTPGQRVTISCSGSSFNIGSHFVYWYQQLPGTAPKLLIYKNNQRPSGVPDRFSGSKSGTSASLAISGLRSEDEADYYCAAWDDSLNGPVFGGGTKLTVLGQPKAAPSVTLFPPSSEELQANKATLVCLISDFYPGAVTVAWKADSSPVKAGVETTTPSKQSNNKYAASSYLSLTPEQWKSHRSYSCQVTHEGSTVEKTVAPTECS
EC50 [1]: 5.58 nM and 0.805 µg/mL
cumulative ADCP EC50 (ng/mL), 4 hours; mouse CCR8-expressing HEK293 cells, mouse M2 macrophages [2]: 68.6 ng/mL
cumulative ADCP EC50 (ng/mL), 12 hours; mouse CCR8-expressing HEK293 cells, mouse M2 macrophages [2]: 17 ng/mL
cumulative ADCP EC50 (pM), 4 hours; mouse CCR8-expressing HEK293 cells, mouse M2 macrophages [2]: 475 pM
cumulative ADCP EC50 (pM), 12 hours; mouse CCR8-expressing HEK293 cells, mouse M2 macrophages [2]: 118 pM
ADCC EC50 (ng/mL) at 20 hours; mouse CCR8-expressing HEK293 cells, mouse NK cells [3]: 87.6 ng/mL
ADCC EC50 (pM) at 20 hours; mouse CCR8-expressing HEK293 cells, mouse NK cells [3]: 584 pM

B2: TPP-18208 (aglycosylated) (antibody)
chain 1: EVQLLESGGGLVQPGGSLRLSCAASGFTFSDYGVHWVRQAPGKGLEWVSGVSWNGSRTHYADSVKGRFTISRDNSKNTLYLQMNSLRAEDTAVYYCVTRGAWGQGTLVTVSS[skipping human IgG1 constant region with changes]
chain 2: B1 chain 2
EC50 [1]: 2.47 nM and 0.357 µg/mL
